Test results reported in the supplement of paper PMC8728848.
The other results are listed elsewhere or left out.

Experiments:
Experiment in all cases: glycan array binding signal (z-score within array); higher = stronger binding
Conditions in all cases: glycan notation: IUPAC condensed, linker removed
[1] = biological target: Fuc(a1-2)[Gal(a1-3)]Gal(b1-4)GlcNAc(b1-2)Man(a1-3)[Fuc(a1-2)[Gal(a1-3)]Gal(b1-4)GlcNAc(b1-2)Man(a1-6)]Man(b1-4)GlcNAc(b1-4)[Fuc(a1-6)]GlcNAc
In short: (§1)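 The binding signal is a Z-score computed within each array and averaged over linkers. Arrays of the same protein sequence at different concentrations or buffers were also averaged together. Data originate from 3228 arrays in the Consortium for Functional Glycomics database, kept only where the protein sequence was available.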

[2] = biological target: Fuc(a1-2)[Gal(a1-3)]Gal(b1-4)GlcNAc(b1-3)GalNAc
In short: as §1

[3] = biological target: Fuc(a1-2)[Gal(a1-3)]Gal(b1-4)GlcNAc(b1-3)[Fuc(a1-2)[Gal(a1-3)]Gal(b1-4)GlcNAc(b1-6)]GalNAc
In short: as §1

[4] = biological target: Fuc(a1-2)[Gal(a1-3)]Gal(b1-4)GlcNAc(b1-6)GalNAc
In short: as §1

[5] = biological target: Fuc(a1-2)[Gal(a1-3)]Gal(b1-4)[Fuc(a1-3)]Glc
In short: as §1

[6] = biological target: Fuc(a1-2)[Gal(a1-3)]Gal(b1-4)[Fuc(a1-3)]GlcNAc
In short: as §1

[7] = biological target: Fuc(a1-2)[Gal(a1-3)]Gal(b1-4)[Fuc(a1-3)]GlcNAc(b1-3)GalNAc
In short: as §1

[8] = biological target: Fuc(a1-2)[Gal(a1-4)]Gal(b1-4)GlcNAc
In short: as §1

[9] = biological target: Fuc(a1-2)[GalNAc(a1-3)]Gal
In short: as §1

[10] = biological target: Fuc(a1-2)[GalNAc(a1-3)]Gal(b1-3)GalNAc(a1-3)[Fuc(a1-2)]Gal(b1-4)GlcNAc
In short: as §1

[11] = biological target: Fuc(a1-2)[GalNAc(a1-3)]Gal(b1-3)GalNAc(b1-3)Gal(a1-4)Gal(b1-4)Glc
In short: as §1

[12] = biological target: Fuc(a1-2)[GalNAc(a1-3)]Gal(b1-3)GlcNAc
In short: as §1

[13] = biological target: Fuc(a1-2)[GalNAc(a1-3)]Gal(b1-3)GlcNAc(b1-2)Man(a1-3)[Fuc(a1-2)[GalNAc(a1-3)]Gal(b1-3)GlcNAc(b1-2)Man(a1-6)]Man(b1-4)GlcNAc(b1-4)GlcNAc
In short: as §1

[14] = biological target: Fuc(a1-2)[GalNAc(a1-3)]Gal(b1-3)GlcNAc(b1-2)Man(a1-3)[Fuc(a1-2)[GalNAc(a1-3)]Gal(b1-3)GlcNAc(b1-2)Man(a1-6)]Man(b1-4)GlcNAc(b1-4)[Fuc(a1-6)]GlcNAc
In short: as §1

[15] = biological target: Fuc(a1-2)[GalNAc(a1-3)]Gal(b1-3)GlcNAc(b1-3)GalNAc
In short: as §1

[16] = biological target: Fuc(a1-2)[GalNAc(a1-3)]Gal(b1-3)GlcNAc(b1-6)GalNAc
In short: as §1

[17] = biological target: Fuc(a1-2)[GalNAc(a1-3)]Gal(b1-4)Glc
In short: as §1

[18] = biological target: Fuc(a1-2)[GalNAc(a1-3)]Gal(b1-4)GlcNAc
In short: as §1

[19] = biological target: Fuc(a1-2)[GalNAc(a1-3)]Gal(b1-4)GlcNAc(b1-2)Man
In short: as §1

[20] = biological target: Fuc(a1-2)[GalNAc(a1-3)]Gal(b1-4)GlcNAc(b1-2)Man(a1-3)[Fuc(a1-2)[GalNAc(a1-3)]Gal(b1-4)GlcNAc(b1-2)Man(a1-6)]Man(b1-4)GlcNAc(b1-4)GlcNAc
In short: as §1

[21] = biological target: Fuc(a1-2)[GalNAc(a1-3)]Gal(b1-4)GlcNAc(b1-2)Man(a1-3)[Fuc(a1-2)[GalNAc(a1-3)]Gal(b1-4)GlcNAc(b1-2)Man(a1-6)]Man(b1-4)GlcNAc(b1-4)[Fuc(a1-6)]GlcNAc
In short: as §1

[22] = biological target: Fuc(a1-2)[GalNAc(a1-3)]Gal(b1-4)GlcNAc(b1-3)Gal(b1-4)GlcNAc
In short: as §1

[23] = biological target: Fuc(a1-2)[GalNAc(a1-3)]Gal(b1-4)GlcNAc(b1-3)Gal(b1-4)GlcNAc(b1-3)Gal(b1-4)GlcNAc
In short: as §1

[24] = biological target: Fuc(a1-2)[GalNAc(a1-3)]Gal(b1-4)GlcNAc(b1-3)GalNAc
In short: as §1

[25] = biological target: Fuc(a1-2)[GalNAc(a1-3)]Gal(b1-4)GlcNAc(b1-3)[Fuc(a1-2)[GalNAc(a1-3)]Gal(b1-4)GlcNAc(b1-6)]GalNAc
In short: as §1

[26] = biological target: Fuc(a1-2)[GalNAc(a1-3)]Gal(b1-4)GlcNAc(b1-6)GalNAc
In short: as §1

[27] = biological target: Fuc(a1-2)[GalNAc(a1-3)]Gal(b1-4)[Fuc(a1-3)]GlcNAc
In short: as §1

[28] = biological target: Fuc(a1-2)[GalNAc(a1-3)]Gal(b1-4)[Fuc(a1-3)]GlcNAc(b1-3)GalNAc
In short: as §1

[29] = biological target: Fuc(a1-2)[GalNAc(a1-4)]Gal(b1-4)GlcNAc
In short: as §1

[30] = biological target: Fuc(a1-2)[GalNAc(b1-3)]Gal
In short: as §1

[31] = biological target: Fuc(a1-3)GlcNAc
In short: as §1

[32] = biological target: Fuc(a1-3)[Gal(b1-4)]Glc6S
In short: as §1

[33] = biological target: Fuc(a1-3)[Gal(b1-4)]GlcNAc
In short: as §1

[34] = biological target: Fuc(a1-3)[Gal(b1-4)]GlcNAc(b1-2)Man
In short: as §1

[35] = biological target: Fuc(a1-3)[Gal(b1-4)]GlcNAc(b1-2)Man(a1-3)[Fuc(a1-3)[Gal(b1-4)]GlcNAc(b1-2)Man(a1-6)]Man(b1-4)GlcNAc(b1-4)GlcNAc
In short: as §1

[36] = biological target: Fuc(a1-3)[Gal(b1-4)]GlcNAc(b1-2)Man(a1-3)[Fuc(a1-3)[Gal(b1-4)]GlcNAc(b1-2)Man(a1-6)]Man(b1-4)GlcNAc(b1-4)[Fuc(a1-6)]GlcNAc
In short: as §1

[37] = biological target: Fuc(a1-3)[Gal(b1-4)]GlcNAc(b1-3)Gal(b1-3)[Fuc(a1-4)]GlcNAc
In short: as §1

[38] = biological target: Fuc(a1-3)[Gal(b1-4)]GlcNAc(b1-3)Gal(b1-4)[Fuc(a1-3)]GlcNAc
In short: as §1

[39] = biological target: Fuc(a1-3)[Gal(b1-4)]GlcNAc(b1-3)Gal(b1-4)[Fuc(a1-3)]GlcNAc(b1-3)Gal(b1-4)[Fuc(a1-3)]GlcNAc
In short: as §1

[40] = biological target: Fuc(a1-3)[Gal(b1-4)]GlcNAc(b1-3)GalNAc
In short: as §1

[41] = biological target: Fuc(a1-3)[Gal(b1-4)]GlcNAc(b1-6)GalNAc
In short: as §1

[42] = biological target: Fuc(a1-3)[Gal(b1-4)]GlcNAc(b1-6)[Gal(b1-3)GlcNAc(b1-3)]Gal(b1-4)Glc
In short: as §1

[43] = biological target: Fuc(a1-3)[Gal(b1-4)]GlcNAc6S
In short: as §1

[44] = biological target: Fuc(a1-3)[Gal3S(b1-4)]Glc
In short: as §1

[45] = biological target: Fuc(a1-3)[Gal3S(b1-4)]GlcNAc
In short: as §1

[46] = biological target: Fuc(a1-3)[Gal3S(b1-4)]GlcNAc6S
In short: as §1

[47] = biological target: Fuc(a1-3)[GalNAc(b1-4)]GlcNAc
In short: as §1

[48] = biological target: Fuc(a1-3)[GalNAc(b1-4)]GlcNAc6S
In short: as §1

[49] = biological target: Fuc(a1-4)GlcNAc
In short: as §1

[50] = biological target: Fuc(b1-3)GlcNAc
In short: as §1

[51] = biological target: Gal(a1-2)Gal
In short: as §1

[52] = biological target: Gal(a1-3)Gal
In short: as §1

[53] = biological target: Gal(a1-3)Gal(b1-3)GlcNAc
In short: as §1

[54] = biological target: Gal(a1-3)Gal(b1-3)GlcNAc(b1-2)Man
In short: as §1

[55] = biological target: Gal(a1-3)Gal(b1-3)GlcNAc(b1-2)Man(a1-3)[Gal(a1-3)Gal(b1-3)GlcNAc(b1-2)Man(a1-6)]Man(b1-4)GlcNAc(b1-4)GlcNAc
In short: as §1

[56] = biological target: Gal(a1-3)Gal(b1-3)GlcNAc(b1-3)GalNAc
In short: as §1

[57] = biological target: Gal(a1-3)Gal(b1-3)GlcNAc(b1-6)GalNAc
In short: as §1

[58] = biological target: Gal(a1-3)Gal(b1-3)[Fuc(a1-4)]GlcNAc(b1-2)Man(a1-3)[Gal(a1-3)Gal(b1-3)[Fuc(a1-4)]GlcNAc(b1-2)Man(a1-6)]Man(b1-4)GlcNAc(b1-4)GlcNAc
In short: as §1

[59] = biological target: Gal(a1-3)Gal(b1-4)Glc
In short: as §1

[60] = biological target: Gal(a1-3)Gal(b1-4)GlcNAc
In short: as §1

B1: B1567 (Bifidobacterium sp) (protein)
chain: MKFTTAKKAVALTGAVAMLVSVAACGSDSGKSSQPAQDSDVKEITVWAWEPSLTQVAKDFEKETGIKVDLKNVGTNTKEYTQLDNAIEAGSGAPDVAQVEYYAVPQYAIKGNLLDITDKTSGYKDFYTPGPWASVQFAGKVYGLPMDSGPMAFFYNKEVFDKAGVDAEQIKTWDQYYDAAKKIHALGDNYYITSDTGDAGFFDSMTWLAGAKPFQTSSDGSEVTVNLTEDKGVKTFTDFWQKLLDEGLLDTKTAGWSEDWFKGMVDGTIASLFTGAWMPANLANSAADGAGKWRVTQMPTADGSTTNSENGGSSLAVLASTKKADAAYQFIEYANHGAGVATRVAGGAFPADKASLEKDSFKNATTVKNADGQDVDYFGGQKYNEVLAQAAENVSSGYQFLPFEVKARTIFGDYFGKSYTGDQKLSDGVAAWQKALQDYGKDQGFTVK
[1]
  glycan array binding signal (z-score): -0.082
[2]
  glycan array binding signal (z-score): -0.135
[3]
  glycan array binding signal (z-score): -0.001
[4]
  glycan array binding signal (z-score): -0.106
[5]
  glycan array binding signal (z-score): -0.113
[6]
  glycan array binding signal (z-score): -0.085
[7]
  glycan array binding signal (z-score): -0.041
[8]
  glycan array binding signal (z-score): -0.14
[9]
  glycan array binding signal (z-score): -0.083
[10]
  glycan array binding signal (z-score): -0.138
[11]
  glycan array binding signal (z-score): -0.103
[12]
  glycan array binding signal (z-score): -0.117
[13]
  glycan array binding signal (z-score): -0.111
[14]
  glycan array binding signal (z-score): 0.076
[15]
  glycan array binding signal (z-score): -0.074
[16]
  glycan array binding signal (z-score): -0.123
[17]
  glycan array binding signal (z-score): -0.063
[18]
  glycan array binding signal (z-score): -0.106
[19]
  glycan array binding signal (z-score): -0.162
[20]
  glycan array binding signal (z-score): 0.019
[21]
  glycan array binding signal (z-score): -0.047
[22]
  glycan array binding signal (z-score): -0.108
[23]
  glycan array binding signal (z-score): -0.087
[24]
  glycan array binding signal (z-score): -0.121
[25]
  glycan array binding signal (z-score): -0.098
[26]
  glycan array binding signal (z-score): -0.107
[27]
  glycan array binding signal (z-score): -0.05
[28]
  glycan array binding signal (z-score): -0.097
[29]
  glycan array binding signal (z-score): -0.054
[30]
  glycan array binding signal (z-score): -0.1
[31]
  glycan array binding signal (z-score): -0.157
[32]
  glycan array binding signal (z-score): -0.066
[33]
  glycan array binding signal (z-score): -0.101
[34]
  glycan array binding signal (z-score): -0.045
[35]
  glycan array binding signal (z-score): -0.097
[36]
  glycan array binding signal (z-score): -0.083
[37]
  glycan array binding signal (z-score): -0.052
[38]
  glycan array binding signal (z-score): 0.063
[39]
  glycan array binding signal (z-score): -0.079
[40]
  glycan array binding signal (z-score): -0.093
[41]
  glycan array binding signal (z-score): -0.096
[42]
  glycan array binding signal (z-score): -0.15
[43]
  glycan array binding signal (z-score): -0.097
[44]
  glycan array binding signal (z-score): -0.037
[45]
  glycan array binding signal (z-score): -0.065
[46]
  glycan array binding signal (z-score): -0.033
[47]
  glycan array binding signal (z-score): -0.056
[48]
  glycan array binding signal (z-score): -0.043
[49]
  glycan array binding signal (z-score): -0.077
[50]
  glycan array binding signal (z-score): -0.089
[51]
  glycan array binding signal (z-score): -0.081
[52]
  glycan array binding signal (z-score): -0.104
[53]
  glycan array binding signal (z-score): -0.129
[54]
  glycan array binding signal (z-score): -0.077
[55]
  glycan array binding signal (z-score): 0.046
[56]
  glycan array binding signal (z-score): -0.018
[57]
  glycan array binding signal (z-score): -0.124
[58]
  glycan array binding signal (z-score): 0.007
[59]
  glycan array binding signal (z-score): 0.005
[60]
  glycan array binding signal (z-score): -0.086
